From ChEMBL document CHEMBL1201862, “PubChem BioAssay data set” (2004)

The molecules below were run on NCI-H322M (assay: inhibition of tumour cell growth, NCI panel, 48 h).

Row | Structure (SMILES) | GI50
1 | O=C1c2ccccc2C(O)(O)C1(O)C1(O)C(=O)c2ccccc2C1(O)O (stereo unspecified) | inactive: > 100 µM
2 | COc1ccc2c(c1)c1nn(CCN(C)C)c3ccc4c(=O)n(CCN(C)C)c(=O)n2c4c13 | active: < 0.01 µM
3 | O=C1Nc2ccccc2/C1=N\c1cccc2ncccc12 | inactive: 58.3 µM
4 | CCCC1=C(CC)C(C(=O)Nc2c(C)cccc2C)=NC(S)N1 (stereo unspecified) | inactive: > 100 µM
5 | O=C(O/C(=C(/N=N/c1ccccc1)c1ccccc1)c1ccccc1)c1ccccc1 | inactive: > 100 µM
6 | C/C(=C/CNc1ncnc2c1ncn2CCC#N)CO | inactive: 7.76 µM
7 | Cc1c/c(=N/NC(=O)c2ccncc2)n2nc(N)sc2n1 | inactive: > 100 µM
8 | CN[C@@H](C)[C@H](OP(=O)(O)OC1[C@@H](O)[C@H](O)C(O)[C@H](O)[C@@H]1O)c1ccccc1 (stereo partly specified) | inactive: > 100 µM
9 | COc1ccc(C(=O)O/N=C2\CCCC\C2=C/c2ccccc2)cc1 | inactive: > 100 µM
10 | C[C@@H]1CC[C@@H]2[C@@H](C1)O[C@@H]([C@@H](C)OCc1ccccc1)SC2(C)C | inactive: 27.5 µM
11 | CC(C)=CC(O)C/C(C)=C/CC/C(C)=C/CCC1(C)C(CCCO)/C(=C(/C)C=O)CCC1(C)O (stereo unspecified) | inactive: > 100 µM
12 | COc1ccc(/C=C2\N=C3NC(=O)C(N4CCOCC4)=C(N)N3C2=O)cc1 | inactive: > 100 µM
13 | Cc1cn(C2OC(C)(CO)C(O)C2O)c(=O)[nH]c1=O (stereo unspecified) | inactive: > 100 µM
14 | COc1cc2c(c(OC)c1OC)C(=O)CC2N (stereo unspecified) | inactive: > 100 µM
15 | O=C(CSc1nnc(Cc2ccccc2)o1)Nc1ccccc1Cl | inactive: > 100 µM
16 | O=[N+]([O-])c1ccc(C2N3CCCCC3[C@H]3CCCCN23)cc1 (stereo partly specified) | inactive: > 100 µM
17 | COc1cc(C)cc2c1C(=O)C(Br)=CC2=O | inactive: 17.7 µM
18 | Cc1nc2ccc(Cl)cc2c2c1CCS2 | inactive: > 100 µM
19 | O=C1C2Nc3ccccc3SC2C(=O)N1c1ccccc1C(F)(F)F (stereo unspecified) | inactive: 42.2 µM
20 | O=C(O)c1c2c(cc3c1CC(Cc1ccccc1)C3=O)CCC2 (stereo unspecified) | inactive: > 100 µM
21 | CC(C)CCC[C@@H](C)[C@H]1CC[C@H]2[C@@H]3CC[C@H]4C[C@H](N)CC[C@]4(C)[C@H]3CC[C@]12C | inactive: 12.2 µM

Row | Structure (SMILES) | GI50
22 | O=c1c2ncn(C3CCCCO3)c2n(-c2ccccc2)c(=S)n1-c1ccccc1 (stereo unspecified) | inactive: > 73.1 µM
23 | COc1cc(C(c2ccc3c(c2)OCO3)N2C(=O)CCC2C(=O)O)cc(OC)c1OC (stereo unspecified) | inactive: > 100 µM
24 | CCCC(=O)OCC1OC(n2cc(F)c(=O)[nH]c2=O)C(F)C1OC(=O)CCC (stereo unspecified) | inactive: 58.7 µM
25 | Cc1ccc2c(c1C)C(=O)/C(=C/c1ccccc1C(=O)O)C2 | inactive: > 100 µM
26 | COc1cc([C@@H]2c3cc4c(cc3[C@@H](OC3OC5CO[C@@H](c6cccs6)OC5C(O)C3O)[C@H]3COC(=O)[C@H]23)OCO4)cc(OC)c1O (stereo partly specified) | inactive: 2.95 µM
27 | CSc1nc(NC2OCC(OC(C)=O)C(OC(C)=O)C2OC(C)=O)c(/N=C(\C)C(C)=O)c(=O)n1C (stereo unspecified) | inactive: > 100 µM
28 | CC1=CCC[C@H]2[C@](C)(CC3=CC(=O)C4SCCSC4C3=O)[C@@H](C)CC[C@]12C (stereo partly specified) | inactive: > 10 µM
29 | Cc1c2c(cc3c1C(=O)C(=O)C1=C3OC[C@@H]1C)C(C)(C)CCC2 | inactive: 14.6 µM
30 | CC1=NN(c2cccc(Cl)c2)C2(C1=Cc1cccs1)C(Cl)C(=O)N2c1nc2ccccc2s1 (stereo unspecified) | inactive: 21.9 µM
31 | CC(=O)O/N=C(/C)c1ccccc1O | inactive: > 100 µM
32 | Nc1n[n+](CC(=O)c2ccccc2)c2sc(-c3ccccc3)nn12 | inactive: 7.6 µM
33 | O=c1[nH]nc(Cc2ccc(Cl)cc2)n1Nc1ccccc1 | inactive: > 100 µM
34 | CCOC(=O)c1ccc2nc(NC(=O)COC(=O)CSc3nc(C)cc(C)n3)sc2c1 | inactive: 37 µM
35 | COc1ccc(S(=O)(=O)Nc2ccc(-c3csc(N4C(=O)/C(=C/c5ccccc5)N=C4c4ccccc4)n3)cc2)cc1Cl | inactive: 71.9 µM
36 | c1ccc(-c2nnc(-c3nn(-c4ccccc4)c4nc5ccccc5nc34)o2)cc1 | inactive: > 100 µM
37 | COC(=O)C1=COC2OC3/C(=C\c4ccc(O)c(OC)c4)C(=O)OC34C=CC1C24 (stereo unspecified) | inactive: 17.7 µM
38 | COc1ccc(/C(C)=N/NC(N)=S)c(OC)c1 | inactive: > 100 µM
39 | O=C1OC(C(O)CO)C(C(O)CO)OC1=O (stereo unspecified) | inactive: > 10 µM
40 | COC1CC(OC2C(C)OC(OC3C(C)OC(OC4C(C)OC(O[C@H]5CC[C@@]6(C)C(=CC[C@]7(O)[C@@H]6C[C@@H](OC(C)=O)[C@@]6(C)[C@]7(O)CC[C@@]6(O)C(C)=O)C5)CC4OC)CC3OC)CC2OC)OC(C)C1O (stereo partly specified) | inactive: > 25 µM
41 | C/C(CC(=O)Nc1ccc(Cl)c(Cl)c1)=N/NC(=O)C[N+](C)(C)C | inactive: > 100 µM
42 | COc1cc(N(CCC#N)CCC#N)ccc1C(=N/NC(=O)c1cc(Br)ccc1O)/N=N/c1ccccc1 | inactive: 28.1 µM

Row | Structure (SMILES) | GI50
43 | OCC1CCCCN1Cc1nc2cc(Cl)ccc2[nH]1 (stereo unspecified) | inactive: > 100 µM
44 | CCc1n[nH]c(=O)n1N1C(=O)CCC1=O | inactive: > 100 µM
45 | COc1ccc(C2C(Cl)C(=O)N2n2cnc3ccccc3c2=O)cc1 (stereo unspecified) | inactive: > 100 µM
46 | COc1ccc(C2=NNC(=O)c3ccccc3N2c2nc(-c3cccs3)nc3ccc(Br)cc23)cc1 | inactive: 32.7 µM
47 | C=CCOC(=O)NC1C(OC(C)[C@@H](NC(=O)OCc2ccccc2)C(=O)OC(C)(C)C)OC(COC(C)=O)C(OC(C)=O)C1OC(C)=O (stereo partly specified) | inactive: > 100 µM
48 | CC1(C)OC(=O)N(c2ccccc2)C12C=Cc1cc([N+](=O)[O-])cc([N+](=O)[O-])c1O2 (stereo unspecified) | inactive: > 100 µM
49 | CC(C(=O)c1ccccc1)C(c1ccccc1)N1CCOCC1 (stereo unspecified) | inactive: > 100 µM
50 | COC(=O)C1=CC[C@@H]2C(C(=O)O)=CO[C@@H](OC3OC(CO)C(O)C(O)C3O)[C@H]12 (stereo partly specified) | inactive: > 155 µM
51 | CN(C)c1n/c(=N/Cc2ccncc2)ss1 | inactive: > 100 µM
52 | N#CC(Nc1cccc(C(F)(F)F)c1)c1ccccc1C(F)(F)F (stereo unspecified) | inactive: 5.92 µM
53 | CC1(C)CC(N(C(=O)/C=C/c2ccc([N+](=O)[O-])o2)C2CCCCC2)CC(C)(C)N1 | inactive: 13.4 µM
54 | COc1c(O)cc2c(c1O)C(=O)C(Cc1ccc(O)cc1)CO2 (stereo unspecified) | inactive: > 100 µM
55 | CCCC[C@@H](C)/C=C1\CN2CCC[C@H]2[C@@](C)(OCc2ccccc2)[C@@H]1O | inactive: > 14.7 µM
56 | CC(C)(C)c1ccccc1N1C(=O)c2ccc3c4c(ccc(c24)C1=O)N(c1ccccc1C(C)(C)C)C3=O | inactive: > 100 µM
57 | Cc1ccc(N2C(=O)/C(=C/c3ccc(N(CCC#N)CCC#N)cc3C)N=C2c2cc([N+](=O)[O-])ccc2Cl)cc1 | inactive: > 100 µM
58 | CCC1(C)C=Cc2c(cc(OC)c3c(=O)c4ccccc4n(C)c23)O1 (stereo unspecified) | inactive: > 10 µM
59 | C/C=N\N1C(=O)c2ccccc2C1=O | inactive: > 100 µM
60 | COC(=O)[C@@]12OC[C@]34C([C@@H](O)C1O)[C@@]1(C)CC(=O)C(OC(=O)/C=C(/c5ccccc5)C(F)(F)F)=C(C)C1C[C@H]3OC(=O)[C@H](O)[C@H]42 (stereo partly specified) | inactive: 29.9 µM
61 | Cc1ccc(CC2(OCCN(C)C)CCC(C(C)(C)C)CC2)cc1 (stereo unspecified) | inactive: 1.98 µM

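Five concentrations, 48 hours, 96-well plates. GI50 marks 50% less growth.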 The source made the active and inactive calls. Cut-off read from the data, not from the text of the source: active = GI50 up to about 1.1 µM and inactive = higher.
